Experimental data: PubChem BioAssay AID1346428 (National Center for Advancing Translational Sciences (NCATS), 2018)
Where “and” joins values, the source holds several entries; their conditions need not be identical. Equal entries are not always repeated. Screen size: about 48,000 compounds; about 1,200 (2.5%) were called active. Another 2% or so got no clear call; they are omitted.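 The calls were made as follows: active = activation of at least 60% and not above a set upper limit (about 1 call in 100 departs from these limits); inconclusive = activation of 40% to 60%, or above that upper limit; inactive = activation under 40%.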 Some of the results follow.

target: Probable G-protein coupled receptor 32 (Homo sapiens) (UniProt O75388); test: qHTS for Agonists of Human Resolvin D1 Receptor DRV1; conditions: CHO-K1 GPR32 beta-arrestin PathHunter luminescence, 90 min; at 76.9 µM; active compounds read high; zero percent set by DMSO-only wells; also: 0% is about no effect
Sequence of UniProt O75388 (O75388 whole entry, looked up): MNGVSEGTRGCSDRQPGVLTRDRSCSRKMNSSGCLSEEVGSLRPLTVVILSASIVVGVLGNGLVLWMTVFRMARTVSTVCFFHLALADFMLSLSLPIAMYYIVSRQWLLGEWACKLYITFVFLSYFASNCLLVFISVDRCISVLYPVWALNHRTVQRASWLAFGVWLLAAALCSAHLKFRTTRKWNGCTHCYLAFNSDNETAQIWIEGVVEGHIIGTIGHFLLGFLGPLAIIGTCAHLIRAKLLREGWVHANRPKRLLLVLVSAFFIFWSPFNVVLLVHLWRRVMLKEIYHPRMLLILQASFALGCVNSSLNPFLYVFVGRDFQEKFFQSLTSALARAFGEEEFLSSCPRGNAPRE
Procedure, shortened: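 PathHunter beta-arrestin recruitment in CHO-K1 cells stably expressing ProLink-tagged GPR32. Cells were exposed to compound for 90 min at 37 C, then chemiluminescence was read after 1 h detection at ambient temperature; DMSO served as basal control.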

activation, inactive:
Cc1cccc(C)c1OCc1nc2c3c(-c4ccccc4)c(-c4ccccc4)oc3ncn2n1 6.69%
Cc1cc2c(cc1S(=O)(=O)NCc1ccccc1Cl)OCCN2C -35.5%
Cc1ccc(C)c(NC(=O)c2ccc3c(O)c(S(=O)(=O)c4ccc(Cl)cc4)c(=O)[nH]c3c2)c1 -19.3%
CCN(CC)c1nn2c(=O)c(C(=O)NCCc3ccccc3)cnc2s1 2.58%
COc1ccc(OC)c(NC(=O)c2cc3c(=O)oc4ccccc4c3s2)c1 -1.81%
CCCCSCCCNC(=O)CN1C(=O)c2cccnc2Oc2ccc(Cl)cc21 -9.25%
CCOc1ccc(-c2nonc2NC(=O)c2oc3cc(C)ccc3c2C)cc1 -14.5%
O=C(NCc1ccc(F)cc1)c1ccc2c(Cl)c3c(nc2c1)CCCC3 -26.3%
Fc1ccc(-c2noc3ncnc(N4CCN(c5ccccc5)CC4)c23)cc1 -7.88%
COc1ccc(S(=O)(=O)N2CCN(c3ccccc3F)CC2)cc1-c1noc(C)n1 -14.8%
Cc1cn2c(=O)cc(COc3cccc(NC(=O)c4ccccc4C)c3)nc2s1 -2.55%
COc1ccc(NC(=O)C2CCN(S(=O)(=O)c3ccc4[nH]c(=O)ccc4c3)CC2)c(OC)c1 42.1%
CCOC(=O)c1ccccc1NC(=O)C(=O)Nc1ccc2nc3n(c(=O)c2c1)CCCCC3 0.292%
CCc1cccc(-n2c(C)nc3c(cnn3-c3ccc(Cl)cc3)c2=O)c1 16.8%
CC(=O)N1CCOc2cc(S(=O)(=O)Nc3cccc(C(F)(F)F)c3)c(Cl)cc21 -25.9%
Cc1cc(C)cc(NC(=O)N2CCC(N3CCCCC3)CC2)c1 6.02%
CCOC(=O)c1c(-c2ccccc2)oc2ccc(N(C(C)=O)S(=O)(=O)c3cc(C)ccc3C)cc12 -9.29%
CCOC(=O)c1[nH]c(C)c(CCC(=O)NCc2ccccc2)c1C -14.5%
COc1ccc(OC)c(NC(=O)Cc2coc3ccc(C(C)C)cc23)c1 -7.54%
CCc1c(C)nc(SCC(=O)N2CCN(c3ccccc3OC)CC2)[nH]c1=O -21.5%
Cc1ccc(O)c(C(CC(=O)NCC2(c3ccccc3)CCCC2)c2ccccc2)c1 (configuration not stated) 23.6%
O=C(O)[C@@H]1C[C@@H](C(=O)O)N1 -1.78%
CCOc1ccc(CNC(=O)C2CCN(c3nnc(-n4cccc4CNc4ccc(C)cc4)s3)CC2)cc1OC -8.4%
Cc1ccc(-n2ncc(C(=O)N3CCN(c4cccc(C)c4)C(C)C3)c2C2CCN(C(=O)OC(C)(C)C)CC2)cc1 (configuration not stated) -21.3%
Cc1ccc(CNC(=O)Cn2nc(C)n3cccc3c2=O)cc1 -9.11%
Cc1c2cnn(CC(=O)N3CCN(c4ccc(F)cc4)CC3)c(=O)c2c(C)n1Cc1ccc(F)cc1 -8.86%
O=C(NCc1ccc(Cl)cc1)c1cc(S(=O)(=O)N2CCCCC2)c[nH]1 1.85%
CCN1CCSc2ccc(C(=O)NC(C)c3ccccc3)cc21 (configuration not stated) -28.3%
CCOc1ccc2nc(NC(=O)c3cc(=O)c4ccc(C)cc4o3)sc2c1 -11%
Cc1cc(C)cc(C(=O)Nc2ccc(-c3nc4ncccc4o3)cc2)c1 17.3%
CCOc1ccc(N2CC(c3nc4ccccc4n3Cc3cccc(Cl)c3)CC2=O)cc1 (configuration not stated) -20.2%
Cc1nn(CCCC(=O)NCc2ccc(F)cc2)c(=O)c2c1sc1ccccc12 -12.9%
COc1c(C)cc(S(=O)(=O)NCCc2c(C)[nH]c3ccccc23)c(C)c1C 21.8%
CCOC(=O)c1cc(-c2ccccc2)n(-c2cccc(C(=O)Nc3ccc(F)c(F)c3)c2)c1C -12.4%
COc1ccccc1CNC(=O)CCn1c(=O)c2ccccc2n(CC(=O)Nc2cccc(Cl)c2)c1=O 9.35%
Cc1c(NC(=O)c2cc(-c3ccc(Cl)c(Cl)c3)on2)c(=O)n(-c2ccccc2)n1C 10.9%
CCOc1ccc(S(=O)(=O)NCC(c2ccco2)S(=O)(=O)c2cccs2)cc1 (configuration not stated) -19.1%
CCOc1ccc(-c2cc(NC(=O)Nc3cccc(C(C)=O)c3)c(C(=O)OC)s2)cc1 -2.86%
CCOC(=O)c1ccc(NC(=O)CCCc2nc(-c3ccccc3Cl)no2)cc1 -0.772%
CCN(CC)CCCC(C)Nc1c2ccc(Cl)cc2nc2ccc(OC)cc12 (configuration not stated) 44.6% and 11.3%
COc1ccc(N2CCN(C(=O)CCc3c(C)nn(-c4ccc(N5CCCC5)nn4)c3C)CC2)cc1 -21.7%
Cc1ccc(NC(=O)Nc2nnc(N(CC(C)C)CC(C)C)s2)cc1Cl -21.1%
COc1ccc(OC)c(NC(=O)C2CCCN(S(=O)(=O)c3c(C)nn(C)c3C)C2)c1 (configuration not stated) -20.5%
Cc1ccc(NC(=O)c2cnn3c(C(F)F)cc(-c4ccccc4)nc23)c(C)c1 -3.02%
O=C(O)c1ccc2c(c1)ncn2-c1ccc(F)c(F)c1 -1.33%
COc1cccc(N2CCN(C(=O)C(CCSC)NS(=O)(=O)c3ccc4c(c3)oc(=O)n4C)CC2)c1 (configuration not stated) -14.5%
CCc1ccc(CNC(=O)Cc2ccc(NC(=O)N3CCSc4ncccc43)cc2)cc1 32.3%
COc1ccc(NC(=O)C2=C(C)Nc3ncnn3C2c2ccc(O)cc2)cc1 (configuration not stated) -2.46%
O=C(Nc1ccc(Cl)cc1)C1CCN(c2nc3ccccc3nc2C(F)(F)F)CC1 9.21%
O=C(NCC(c1cccnc1)N1CCc2ccccc2C1)c1ccc(F)c(F)c1 (configuration not stated) -13.5%
O=C(NC1CC1)c1ccc(Cn2c(SCc3cccc(F)c3)nc3cccnc32)cc1 -11.3%
COc1ccccc1N1CCN(C(=O)c2ccc(CS(=O)c3ccccc3C)o2)CC1 (configuration not stated) 3.19%
COc1ccc(CCN2C(=O)c3oc4cc(C)cc(C)c4c(=O)c3C2c2ccc(F)cc2)cc1OC (configuration not stated) -4.27%
Cn1cc(S(=O)(=O)c2cccc(Cl)c2)c(=O)c2cc(F)c(N3CCCCCC3)cc21 -10.5%
CCS(=O)(=O)N1CCc2cc(C(=O)NCc3ccc(OC)cc3)ccc21 6.1%
O=C(O)P(=O)(O)O -0.518%
CCC(CC)C(=O)Nc1ccc(OCc2cc(=O)n3c4c(sc3n2)CCCC4)cc1 18.3%
Cc1ccc(C(=O)N2CCc3cc(CNS(=O)(=O)c4ccc(Cl)s4)ccc32)cc1 9.77%
Cc1ccc(C)c(N2CCN(C(=O)C3CCN(c4nc(-c5ccc(C(C)C)cc5)no4)CC3)CC2)c1 -17.7%
CCOc1ccc(NC(=O)c2ccc3c(SCC(=O)O)c4c(nc3c2)CCCC4)cc1 4.18%
O=C(CN1CCN(S(=O)(=O)c2cc(Cl)ccc2Cl)CC1)Nc1cccc(F)c1 2.4%
Cn1cc(S(=O)(=O)c2ccc(Cl)cc2)c(=O)c2cc(F)c(N3CCCCCC3)cc21 -10.9%
O=C(Nc1ccc(NC(=O)c2cc3ccccc3o2)cc1)c1ccccc1 1.89%
CCOC(=O)C1CCCN(C(=O)c2ccc3c(c2)N(Cc2ccccc2)C(=O)c2ccccc2S3(=O)=O)C1 (configuration not stated) -27.8%
CC1=C(C(=O)Nc2ccc(C)cc2C)C(c2ccccc2[N+](=O)[O-])n2ncc(C(=O)Nc3ccccc3)c2N1 (configuration not stated) -33.2%
Fc1ccc(-c2nc(Nc3ccc(F)c(Cl)c3)nc3c2COc2ccccc2-3)cc1 -2.12%
CC(C(=O)Nc1cccc(C#N)c1)n1nc(-c2ccccc2)c2c(c1=O)CCCC2 (configuration not stated) 31.6%
CCOC(=O)c1ccccc1NC(=O)Cn1cc(C(=O)c2cccc(OC)c2)c(=O)c2ccc(C)nc21 -16.2%
CCCCCCCCCCCCCCCC[N+](C)(C)CCN(Cc1ccc(OC)cc1)c1ncccn1 -47.5%
CCOC(=O)c1c(C)[nH]c(CCC(=O)NCCCN2CCN(c3ccc(F)cc3)CC2)c1C -13.1%
CC(C)c1ccc(NC(=O)c2cc3c(s2)-c2ccccc2SC3)cc1 -18.2%
Cc1ccc(CCNC(=O)c2ccc3c(c2)N(Cc2cccc(C)c2)C(=O)c2ccccc2S3(=O)=O)cc1 -4.83%
Cc1cccc(-c2nc(S(=O)(=O)c3ccc(F)cc3)c(N3CCN(c4ccccc4)CC3)o2)c1 3.36%
O=C(CN1C(=O)COc2ccc(S(=O)(=O)N3CCCCCC3)cc21)NCc1ccc(Cl)cc1 -15%
Cc1cc(=O)[nH]c2nnc(SCC(=O)NC(C)(C)C)n12 3.9%
COc1cc2c(cc1OC)C(COc1ccccc1OC)N(C(=O)CC(C)C)CC2 (configuration not stated) 11.1%
COc1ccc(Cl)cc1Nc1sc(C(=O)c2ccccc2)c(N)c1C(=O)Nc1ccccc1 -97.1%
CCc1ccc(-c2cn3c(n2)sc2cc(C(=O)NC4CCCCCC4)ccc23)cc1 -9.54%
CCc1c(C)sc2c1CCN(Cc1cccc(F)c1)C2c1ccccc1 (configuration not stated) 32.2%
CC(=O)N1CCc2cc(CNS(=O)(=O)c3ccc(F)cc3)ccc21 -4.21%
COCCc1nn2c(=O)cc(COC(=O)c3ccc4c(c3)OCO4)nc2s1 -18.9%
Cc1ccc(-c2cc(C(=O)NCc3cnn(C)c3C)c3cc(Br)ccc3n2)cc1 -15.4%
